Some of the results follow.

This test has as its system T1, Caupolican (Caup) homeodomain DNA-binding domain.
T1 sequence: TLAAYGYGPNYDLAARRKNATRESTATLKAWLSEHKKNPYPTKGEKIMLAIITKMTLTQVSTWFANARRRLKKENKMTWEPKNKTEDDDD
As to the kind of experiment: PBM E-score (8-mer, recovered from the published 9-mer minima) (E-score (dimensionless, -0.5 to 0.5)); Drosophila protein; higher = stronger relative binding preference, active = 0.31 or more. In short, it runs like this:
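Caup's homeodomain DNA-binding domain (residues 214-303) was produced by in vitro transcription and translation and applied at 100 nM to custom-designed protein binding microarrays. Each value is an enrichment score giving relative binding preference for a short DNA word; higher means stronger. Published 9-mer scores were the minimum of their two constituent 8-mer scores, and the 8-mer values were recovered from those minima. A cutoff of 0.31 marks candidate binding sequences.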
In the case of CATAATTC, the “PBM E-score” value was inactive: 0.065.
In the case of ACGGGTGA it was inactive: 0.00384; in that of CGTCTTCA, inactive: -0.0985.
As for GCCCACGC, the “PBM E-score” value is inactive: -0.309.
In the case of AGCCGGTC it was inactive: -0.0994.
Then CAGAATGC, with inactive: -0.132; and CCTCTCCA, with inactive: -0.194; and TCACACCA, with inactive: 0.0873.
In the case of GACGACTA it was inactive: 0.101; in that of ACACTATC, inactive: 0.129; in that of GCTGTTTA, inactive: 0.0691.
For TGCCGGAA, the “PBM E-score” value is inactive: -0.0642.
In the case of AAATTCCG it was inactive: 0.00229; in that of GATCCACA, inactive: 0.0297.
In the case of ACAATAAG it was inactive: 0.124.
Then CAAAAAAC, with inactive: 0.119; and GACAAACC, with inactive: 0.0748; and ATCTCGGC, with inactive: -0.157.
As for GCCCATTA, the “PBM E-score” value was inactive: -0.00357.
Then AATGCCCA, with inactive: -0.0245.
In the case of ACTTGGGG it was inactive: -0.227; in that of CCAGAGAA, inactive: -0.0781.
For the sequence GCAACTGC, the “PBM E-score” value is inactive: 0.0274.
Then TACAGAGA, with inactive: 0.12; and CGTTCCAG, with inactive: -0.0331.
On to CGGCGGAC, for which the “PBM E-score” value is inactive: -0.143.
As for CGCCAGCC, the “PBM E-score” value is inactive: -0.277.
In the case of ACACTGGC it was inactive: 0.0762.
As to GGGAAGCA, the “PBM E-score” value was inactive: -0.134.
Then CTTCTTGC, with inactive: -0.135.
Then ACGCCCCA, with inactive: -0.161; and GTGCTTCA, with ≥ 0.0527; and CGCGGCCG, with inactive: -0.317.
Then ACAGTTCC, with inactive: 0.0389; and AGTATAGA, with inactive: 0.154; and AATGTACG, with inactive: 0.153.
CCTTCTAC: the “PBM E-score” value was inactive: -0.131.
In the case of AAGACAAT it was inactive: 0.186; in that of AGCTCTTC, inactive: -0.0528; in that of ATCGACTG, inactive: -0.00774.
Then CTCCCCCC, with inactive: -0.411; and TATTTACA, with inactive: 0.304; and ATTGTGCA, with inactive: 0.0772.
Then CTCTCAAG, with inactive: -0.0267.
Consider GAAGTCAC, for which the “PBM E-score” value is inactive: -0.0947.
For the sequence GGGCCCGA, the “PBM E-score” value is inactive: -0.214.
For the sequence CATAATGA, the “PBM E-score” value is inactive: 0.153.
In the case of ATTCGGAG it was inactive: -0.00213; in that of CCTTGTAG, active: 0.322; in that of CGATGGTC, inactive: -0.074.
Then AGGCACCC, with inactive: -0.249; and CCGGGCAC, with inactive: -0.198; and ATCAATCG, with ≥ 0.156.
In the case of CAGCAACA it was inactive: 0.202; in that of CCAGAAAG, inactive: -0.0376; in that of CACCCGGG, inactive: -0.259.
With ACATATTG, the “PBM E-score” value is inactive: 0.26.
Then AAGGCAGC, with inactive: -0.184; and TACGAAGA, with ≥ 0.114; and AGCTTACT, with inactive: -0.00482.
Then CAAGAGTG, with inactive: 0.0824; and CGTCAACA, with inactive: 0.0802; and AGGTGATA, with inactive: 0.00708.
Then AGCTTAGA, with inactive: -0.0147.
With GTGTAGCA, the “PBM E-score” value is inactive: 0.194.
Then ACCCAAAG, with inactive: -0.153; and GGAAGGCC, with inactive: -0.255; and GTGCAAAC, with inactive: 0.023.
In the case of CATATGCA it was inactive: 0.149; in that of CCTGCTTC, inactive: -0.175.
In the case of CCTGTCCG it was inactive: 0.0228; in that of CGGGAGCC, inactive: -0.262.
For GATGTAAC, the “PBM E-score” value was inactive: 0.306.
Then GATGGGAC, with inactive: -0.0604.
In the case of ATTCGTTG it was inactive: 0.0756; in that of CATTCGAA, inactive: 0.109; in that of ATGGTCTG, inactive: 0.0396.
Then GCTTAATA, with inactive: -0.0551.
On to ATGCCGTC, for which the “PBM E-score” value is inactive: 0.02.
In the case of ATATTTCG it was inactive: 0.142; in that of AAGTATGC, inactive: 0.0832.
Then GCTTACCC, with inactive: -0.181.
In the case of TCACTCAA it was inactive: 0.00904; in that of AAACGGGC, inactive: -0.127.
In the case of ATCCGCAA, the “PBM E-score” value was inactive: -0.0477.
In the case of CTCTTGCC, the “PBM E-score” value is inactive: -0.00459.
In the case of AACGTAGA it was inactive: 0.0221.
For the sequence AGCTAAGC, the “PBM E-score” value is inactive: -0.202.
Then CAACTCCG, with inactive: -0.154; and CTCCGACC, with inactive: -0.259; and CCCCGGCG, with inactive: -0.293.
Consider ACCCGCTG, for which the “PBM E-score” value is inactive: -0.0225.
Then AACGGGTG, with inactive: 0.0746.
Regarding AACACTCC, the “PBM E-score” value was inactive: 0.14.
In the case of AAAGCTCC it was inactive: -0.127; in that of ACTAGATG, inactive: 0.121; in that of CGGTGTCA, inactive: 0.193.
Then CTTATAAG, with inactive: -0.077; and GAATGAAA, with inactive: -0.0104; and TATAAGAA, with inactive: 0.0887.
In the case of CGGGTGAG it was inactive: -0.228.
In the case of ATGCTCTA, the “PBM E-score” value was inactive: 0.044.
In the case of AATTTGTC it was inactive: 0.153; in that of TCAAAACA, inactive: 0.235.
For the sequence CTTTTCGC, the “PBM E-score” value was inactive: -0.012.
In the case of TCCGACAA it was inactive: 0.219; in that of CCTGCCAC, inactive: -0.21.
In the case of CAGTAAGC it was inactive: -0.039; in that of CGCTAAAC, inactive: -0.0158.
Take ATGCCCAG: the “PBM E-score” value is inactive: -0.138.
Then CCGTAGAG, with inactive: -0.071; and GCCGAAGC, with inactive: -0.217.

These data come from the supplement of paper PMC3724861.
